Assay results: patent US4806534A, “Therapeutically active flavonyl-1,4-dihydrophyridines” (Recordati S.A., Chemical & Pharmaceutical Company, priority 1985, dated 1989)
At least one read-out could not be matched to a standard name with certainty.

Molecular target: calcium-antagonistic binding site
Test: Displacement of 3H-nitrendipine from calcium-antagonistic binding site (rat brain membranes)
Details: 3H-nitrendipine 0.45 nM, 60 min at 25° C.

Row | Compound | IC50 [nM]
1 | COC(=O)C1=C(C)NC(C)=C(C(=O)OC)C1c1cccc2c(=O)c(C)c(-c3ccccc3)oc12 [i, Dimethyl 2,6-dimethyl-4-(3-methylflavon-8-yl)-1,4-dihydropyridine-3,5-dicarboxylate] | 5.55
2 | CC1=C(C(=O)OCCCl)C(c2cccc3c(=O)c(C)c(-c4ccccc4)oc23)C(C(=O)OC(C)C)=C(C)N1 (stereo not drawn) [iii, Isopropyl beta-chloroethyl 2,6-dimethyl-4-(3-methylflavon-8-yl)-1,4-dihydropyridine-3,5-dicarboxylate] | 8.81
3 | CC1=C(C(=O)OCCN2CCCCC2)C(c2cccc3c(=O)c(C)c(-c4ccccc4)oc23)C(C(=O)OC(C)C)=C(C)N1 (stereo not shown) [iv, Isopropyl 2,N-piperidinoethyl 2,6-dimethyl-4-(3-methylflavon-8-yl)-1,4-dihydropyridine-3,5-dicarboxylate] | 303
4 | CC1=C(C(=O)OCCN(C)Cc2ccccc2)C(c2cccc3c(=O)c(C)c(-c4ccccc4)oc23)C(C(=O)OC(C)C)=C(C)N1 (stereo not shown) [v, isopropyl 2-(N-benzyl-N-methylamino)ethyl 2,6-dimethyl-4-(3-methylflavon-8-yl)-1,4-dihydropyridine-3,5-dicarboxylate] | 8.36
5 | CC1=C(C(=O)OCCN(C)CCC(c2ccccc2)c2ccccc2)C(c2cccc3c(=O)c(C)c(-c4ccccc4)oc23)C(C(=O)OC(C)C)=C(C)N1 (stereo not shown) [vi, isopropyl 2-(N-(3,3-diphenylpropyl)-N-methylamino)ethyl 2,6-dimethyl-4-(3-methylflavon-8-yl)-1,4-dihydropyridine-3,5-dicarboxylate] | 130
6 | CCOC(=O)C1=C(C)NC(C)=C(C(=O)OC)C1c1cccc2c(=O)c(C)c(-c3ccccc3)oc12 (stereo not shown) [viii, Methyl ethyl 2,6-dimethyl-4-(3-methylflavon-8-yl)-1,4-dihydropyridine-3,5-dicarboxylate] | 3.06
7 | COC(=O)C1=C(C)NC(C)=C(C(=O)OC(C)C)C1c1cccc2c(=O)c(C)c(-c3ccccc3)oc12 (stereo not shown) [x, Methyl isopropyl 2,6-dimethyl-4-(3-methylflavon-8-yl)-1,4-dihydropyridine-3,5-dicarboxylate] | 13.5
8 | CCCCOC(=O)C1=C(C)NC(C)=C(C(=O)OC)C1c1cccc2c(=O)c(C)c(-c3ccccc3)oc12 (stereo not shown) [xi, Methyl n-butyl 2,6-dimethyl-4-(3-methylflavon-8-yl)-1,4-dihydropyridine-3,5-dicarboxylate] | 54.5
9 | C#CCOC(=O)C1=C(C)NC(C)=C(C(=O)OC)C1c1cccc2c(=O)c(C)c(-c3ccccc3)oc12 (stereo not shown) [xii, Methyl propargyl 2,6-dimethyl-4-(3-methylflavon-8-yl)-1,4-dihydropyridine-3,5-dicarboxylate] | 31.9
10 | C=CC(C)OC(=O)C1=C(C)NC(C)=C(C(=O)OC)C1c1cccc2c(=O)c(C)c(-c3ccccc3)oc12 (stereo not drawn) [xiv, Methyl alpha-methylallyl 2,6-dimethyl-4-(3-methylflavon-8-yl)-1,4-dihydropyridine-3,5-dicarboxylate] | 14.6
11 | COC(=O)C1=C(C)NC(C)=C(C(=O)OCC(C)=O)C1c1cccc2c(=O)c(C)c(-c3ccccc3)oc12 (stereo not shown) [xvi, Methyl 2-oxopropyl 2,6-dimethyl-4-(3-methylflavon-8-yl)-1,4-dihydropyridine-3,5-dicarboxylate] | 3.96
12 | CCOCCOC(=O)C1=C(C)NC(C)=C(C(=O)OC)C1c1cccc2c(=O)c(C)c(-c3ccccc3)oc12 (stereo not shown) [xviii, Methyl 2-ethoxyethyl 2,6-dimethyl-4-(3-methylflavon-8-yl)-1,4-dihydropyridine-3,5-dicarboxylate] | 16.6
13 | COC(=O)C1=C(C)NC(C)=C(C(=O)OCCOC(C)=O)C1c1cccc2c(=O)c(C)c(-c3ccccc3)oc12 (stereo not shown) [xx, Methyl 2-acetoxyethyl 2,6-dimethyl-4-(3-methylflavon-8-yl)-1,4-dihydropyridine-3,5-dicarboxylate] | 49.1
